The values below come from article PMC6212790.

Some of the results follow. At the low end of the ranking, values are background and their order means little.

The experiment addresses T1, GST-Rok (full length) (UniProt O34857).
T1 sequence: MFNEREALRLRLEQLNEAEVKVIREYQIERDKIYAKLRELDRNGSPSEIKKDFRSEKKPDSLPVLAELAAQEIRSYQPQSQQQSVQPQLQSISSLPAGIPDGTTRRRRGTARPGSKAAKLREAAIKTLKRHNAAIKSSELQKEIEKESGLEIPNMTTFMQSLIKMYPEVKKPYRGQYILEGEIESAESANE
As to the kind of experiment: protein binding microarray.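 Further: rank score from −0.5 (least bound) to 0.5 (best bound).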 The note with it: Rok is a gene silencer of Bacillus subtilis; high values mean tight binding; most listed sequences are background and not binding sites; double strand, one strand shown.
ACAACGAA came in with a binding signal of 0.101 E-score.
In the case of CGTTGGGC, the binding signal was -0.313 E-score.
The same measure for AAAGATCC: 0.00787 E-score; for CAGATCCG: 0.0157 E-score.
The same measure for CGGAAGTA: 0.205 E-score; for ACGATTGC: -0.0759 E-score.
Regarding GATCTGCA, the binding signal came out at 0.222 E-score.
AAAGCCAT gave a binding signal of -0.188 E-score.
The same measure for CCAGGGGG: -0.413 E-score; for ACGGCCAG: -0.189 E-score; for ATTTCATA: 0.2 E-score.
For the sequence TCATAGGA, the binding signal came out at 0.105 E-score.
Next, ACTTGGCA: -0.0171 E-score; CCCCTGTA: -0.15 E-score; AATCTGCT: -0.197 E-score.
Next, AGCCGTAA: 0.0716 E-score; AGGTGAGC: -0.0616 E-score; AAGGAATC: -0.0168 E-score.
Next, ATTCTCGC: 0.0188 E-score; CGAGAGTC: -0.165 E-score; ATAAATGG: 0.129 E-score.
For the sequence ACGTACAT, the binding signal is 0.236 E-score.
The same measure for GTTACTTA: 0.243 E-score.
Next, GCACTGAC: 0.0223 E-score; AGTCGTTC: -0.114 E-score.
Take AAGGCGGT: the binding signal is -0.0994 E-score.
The same measure for CGCAGACC: -0.216 E-score; for CCTTGAGC: -0.274 E-score.
The sequence AAGCAGCG returned a binding signal of -0.0481 E-score.
AGCAAGAT had a binding signal of -0.0176 E-score.
The same measure for AATTCGCC: 0.0442 E-score; for ATCCGACA: 0.0482 E-score.
AAATTTTA yielded a binding signal of 0.285 E-score.
Turning to ACTCGCGA, the binding signal is 0.00126 E-score.
The same measure for AGGTATTA: 0.21 E-score; for AATGCGAG: 0.132 E-score.
Next, TCAGGGCA: -0.135 E-score; AAAGAGAT: 0.0211 E-score.
Next, CGTGAGTC: -0.21 E-score.
The sequence ATCATGGG yielded a binding signal of -0.141 E-score.
Sequence TACCCCAA registered a binding signal of -0.0214 E-score.
Next, CGCGCGAC: 0.0395 E-score.
The sequence GATATTAC came in with a binding signal of 0.364 E-score.
CATGGTGA yielded a binding signal of 0.0117 E-score.
The same measure for CTCGTAAC: -0.0505 E-score; for ACCACCGT: -0.0469 E-score.
ACACTGTG gave a binding signal of 0.143 E-score.
For TACTCGGA, the binding signal is -0.103 E-score.
With AGTTGGGG, the binding signal was -0.169 E-score.
AAGACTCC returned a binding signal of -0.131 E-score.
For AAGCTCAG, the binding signal was -0.1 E-score.
In turn, AAACCCAA displayed a binding signal of 0.0502 E-score.
Turning to GAAGGCCC, the binding signal is -0.477 E-score.
With ATGGCCGC, the binding signal is -0.381 E-score.
TCCGCGGA displayed a binding signal of -0.14 E-score.
The same measure for AAATTGAT: 0.0562 E-score.
AGTGCCAA registered a binding signal of 0.0622 E-score.
In turn, CCCCGAAC had a binding signal of -0.366 E-score.
Next, GTCTCCAA: -0.187 E-score; CTTCGCAA: -0.114 E-score; AGCGATAG: -0.0213 E-score.
The sequence TCTTCAAA showed a binding signal of 0.0644 E-score.
The same measure for AGCCGTAG: 0.0323 E-score; for CGTTCGCA: -0.183 E-score; for GGTAATTA: 0.375 E-score.
Sequence ACGAAAGC showed a binding signal of -0.119 E-score.
The same measure for TCCATACA: 0.211 E-score; for GCTGTGCC: -0.308 E-score; for AGTGTGGA: 0.108 E-score.
Regarding CTCCAGCC, the binding signal was -0.243 E-score.
Consider CGTAACGA, for which the binding signal stood at 0.166 E-score.
Take CCCCCTAC: the binding signal is -0.403 E-score.
Next, AGCATCAC: -0.00104 E-score; GAACCACC: -0.256 E-score.
Next, ACCCGCAG: -0.2 E-score; AATGGAAT: 0.0413 E-score.
In turn, TCTCGGAA came in with a binding signal of -0.0124 E-score.
With GACCCGGC, the binding signal is -0.336 E-score.
GTAAGCTA came in with a binding signal of 0.181 E-score.
The same measure for CTCATATA: 0.13 E-score; for CCCCGGAG: -0.437 E-score; for CTTGATGA: -0.13 E-score.
On to AGAGTATC, for which the binding signal was determined as 0.0505 E-score.
Next, ATCCTAGG: -0.0661 E-score; ATCTCGTG: -0.143 E-score; ATCCAGCC: -0.136 E-score.
Regarding AACCCCCT, the binding signal is -0.455 E-score.
Next, CGACTGTC: -0.255 E-score.
The same measure for AAGCCGAA: 0.00167 E-score; for GATCAGGC: -0.00823 E-score; for AATGCGGC: 0.00238 E-score.
The sequence AGCGGAAA had a binding signal of 0.0596 E-score.
Next, AGTTAGGG: -0.0305 E-score.
Next, ACGTTATA: 0.202 E-score; ATAACAGA: 0.104 E-score.
The sequence ACTCAAGA showed a binding signal of -0.0412 E-score.
CGGTGGGA registered a binding signal of -0.18 E-score.
On to CTTAGCAC, for which the binding signal is -0.0712 E-score.
Next, CCAGGCAA: -0.216 E-score.
The same measure for AAGTGATC: -0.0867 E-score.
The same measure for CTATTGGC: -0.136 E-score; for ATTACGCA: 0.236 E-score.
As to GCTTGGCA, the binding signal was -0.0867 E-score.
Consider AGCCCTAA, for which the binding signal is -0.164 E-score.
The same measure for ACCCCTAA: -0.264 E-score.
The same measure for ACACTACG: -0.0357 E-score; for ACTAGAGT: 0.224 E-score; for ATTGGCAA: -0.188 E-score.
Sequence GCGATGCC had a binding signal of -0.079 E-score.
Next, AGAATAGA: -0.0682 E-score; CCTTCACA: 0.0629 E-score; GAAGGTAC: -0.0712 E-score.
GGAACTAC: the binding signal was found to be 0.294 E-score.
Sequence CATGCCAC returned a binding signal of -0.115 E-score.
The same measure for AGGACCTA: 0.144 E-score; for CCCCCCGG: -0.385 E-score.
Regarding GTCATCAC, the binding signal was -0.106 E-score.
AATCGGAT had a binding signal of -0.024 E-score.
Next, AATCGCAG: 0.0474 E-score; CACCGCTC: -0.238 E-score.
As for CGAGATAG, the binding signal came to 0.0866 E-score.
The same measure for CCCTAAGG: -0.334 E-score; for CGTCTTTA: 0.155 E-score.
CCTATCTA returned a binding signal of 0.34 E-score.
In turn, CACTGTCA showed a binding signal of -0.0558 E-score.
On to AACTTCGG, for which the binding signal was -0.044 E-score.
Next, CCTTATAC: 0.0515 E-score.
With AGTTCGCG, the binding signal worked out at 0.0786 E-score.
Next, GATAAAGA: 0.00716 E-score; AAGGCGAG: -0.243 E-score.
Next, AGTTAACC: 0.0465 E-score.
The same measure for AATGCCGT: -0.077 E-score; for CGGTCCAA: -0.0697 E-score; for AATCGCTC: -0.175 E-score.
As to ACGAGGCA, the binding signal was -0.0779 E-score.
The same measure for ATCTAGTC: 0.297 E-score.
Next, ATGTCCGA: -0.0166 E-score; AAAAATAT: 0.319 E-score; AACGAGTA: 0.128 E-score.
The same measure for AGTTTGCC: 0.151 E-score; for AGGGCGCG: -0.256 E-score; for ACAGTCAA: -0.00886 E-score.
Turning to ATAGCCAT, the binding signal was -0.0303 E-score.
Turning to ACGTGTAT, the binding signal came to 0.24 E-score.
CATTCCAC yielded a binding signal of -0.122 E-score.
Next, AAATTCCT: -0.0504 E-score; GGGATCCC: -0.41 E-score.
Next, CAGGATTC: 0.121 E-score.
CACAACCC: the binding signal is -0.136 E-score.
Next, CTCTTAGC: 0.0497 E-score.
The same measure for GATCCACC: -0.074 E-score.
In the case of AATGCTGA, the binding signal came out at 0.0167 E-score.
On to CGTATCAC, for which the binding signal amounted to 0.181 E-score.
Sequence ACATAAAC displayed a binding signal of 0.257 E-score.
The sequence AGAGGGTG gave a binding signal of -0.305 E-score.
In the case of ACCGGCTC, the binding signal was -0.322 E-score.
Next, CATTTGTC: -0.0407 E-score; AAACGGAA: 0.00814 E-score; CTCAGCAA: -0.041 E-score.
The same measure for CTTAGGCA: -0.0383 E-score.
Take CATATTAA: the binding signal is 0.268 E-score.
The same measure for AGTACACG: 0.0183 E-score.
Regarding CACAGATC, the binding signal is -0.168 E-score.
For AGTATGCG, the binding signal stood at 0.241 E-score.
Next, GGACCCCC: -0.434 E-score.
The same measure for GGGACTGA: -0.162 E-score; for AAACGACT: 0.082 E-score.
Next, AGATCCTA: 0.165 E-score; TATTTGGA: -0.0855 E-score.
Turning to ATGCATGG, the binding signal was 0.0449 E-score.
Next, GACCCCCA: -0.361 E-score.
Turning to GCATAGGA, the binding signal was determined as 0.125 E-score.
